Over roughly 33,000 sequences, “E-score (-0.5 to 0.5)” has its median near -0.016; the highest 2% begin near 0.31. Some of the results follow.
target: Cst6 (UniProt P40535); assay: PBM E-score (8-mer binding enrichment) (E-score (-0.5 to 0.5)); higher = stronger / more preferred TF binding; most listed sequences are background and not binding sites; settings: protein concentration: 200 nM; construct: GST-DNA-binding domain
Method in brief: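 PURExpress in vitro transcription/translation supplied GST-tagged yeast transcription factors, either full-length or DNA-binding domain. Applied at about 100-200 nM to universal all-10-mer Agilent arrays double-stranded by primer extension, the bound protein was detected with fluorescent anti-GST. E-scores, modified Wilcoxon-Mann-Whitney statistics, were given by the Universal PBM Analysis Suite to ungapped eight-base words pooled with their reverse complements after masliner normalisation.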

Compared with AAGGTGAA, AGTCAAGA is lower in “PBM E-score” value: 0.00299 for the first, -0.0402 for the second.

Going from ATTTGCTA to AAAATTTT, the “PBM E-score” value falls from 0.156 to 0.143.

Compared with AACCGTAG, GTAGAAAC is higher in “PBM E-score” value: -0.21 for the first, 0.158 for the second.

First: CGAACCAA
Second: AAAGTTCG
The “PBM E-score” value of the first is lower: 0.0603 for the first, 0.19 for the second.

First: GGACTTAA
Second: AAAATCAC
The “PBM E-score” value of the first is lower: -0.256 for the first, 0.207 for the second.

Compared with CCCGCGAG, CACACTGC is higher in “PBM E-score” value: -0.188 for the first, -0.0758 for the second.

First: CAGTTCCA
Second: AGTCCTAT
The “PBM E-score” value of the first is higher: -0.131 for the first, -0.186 for the second.

Going from CCTCAACA to CGCTCAAG, the “PBM E-score” value falls from 0.265 to -0.0893.

Compared with TCCCAACA, CGAAGCAA is lower in “PBM E-score” value: 0.0906 for the first, -0.0077 for the second.

Going from ACCCAGTC to GCAGACTA, the “PBM E-score” value rises from -0.192 to -0.158.

Compared with CATGTTCG, GGGATGGA is lower in “PBM E-score” value: -0.115 for the first, -0.119 for the second.

First: TAACGTGA
Second: CCGAAAGC
The “PBM E-score” value of the first is higher: 0.284 for the first, -0.322 for the second.

Compared with CGTCCCTC, CCGTTTCC is lower in “PBM E-score” value: -0.0115 for the first, -0.169 for the second.

First: AAGTGGCT
Second: AAGTAGTC
The “PBM E-score” value of the first is higher: 0.069 for the first, 0.0484 for the second.

Going from CAAGGCCG to TCAGAGGA, the “PBM E-score” value falls from -0.142 to -0.193.

Compared with CGCTGCAG, AGCCACTC is higher in “PBM E-score” value: -0.238 for the first, -0.129 for the second.

Going from GGCATAGA to GATGTTAC, the “PBM E-score” value rises from -0.0127 to 0.268.

Going from CGAAAAAA to ATCCCAGC, the “PBM E-score” value falls from 0.276 to -0.175.

First: CTTACCTC
Second: ACGCTGCG
The “PBM E-score” value of the first is higher: -0.0973 for the first, -0.128 for the second.

First: GACGGCCA
Second: ATAAAGAG
The “PBM E-score” value of the first is lower: -0.163 for the first, 0.117 for the second.

First: AAACGTGT
Second: CACTGATG
The “PBM E-score” value of the first is higher: 0.11 for the first, 0.0905 for the second.

Going from GCGCCGTA to TCATGAGA, the “PBM E-score” value falls from 0.384 to 0.214.

Going from CAAAGGAG to CATGACGA, the “PBM E-score” value rises from 0.0052 to 0.438.

Going from ACGGTACA to AATGGTCG, the “PBM E-score” value falls from 0.028 to -0.143.

First: AAGGGGGT
Second: CAGTCCTC
The “PBM E-score” value of the first is lower: -0.299 for the first, -0.209 for the second.

Going from ATCCCGTC to CAAGCCGC, the “PBM E-score” value falls from -0.0314 to -0.124.

Compared with GCTTTGTA, ATTGCATG is higher in “PBM E-score” value: 0.091 for the first, 0.261 for the second.

Compared with CCCTGCCC, AGTAAATG is higher in “PBM E-score” value: -0.341 for the first, 0.0991 for the second.

First: AACGATCC
Second: ACTTTGAG
The “PBM E-score” value of the first is lower: -0.19 for the first, 0.0324 for the second.

Going from ACCTGTGA to AGGTGTGG, the “PBM E-score” value falls from 0.112 to -0.257.

Going from GTCTAGGA to GTATTTTA, the “PBM E-score” value rises from -0.17 to 0.121.

Going from AGATGGCG to CACCATAA, the “PBM E-score” value falls from 0.107 to 0.106.

Going from ATCATTCG to TACCAGCA, the “PBM E-score” value falls from 0.264 to 0.0587.

First: GGGAGCAC
Second: AGTAGCAG
The “PBM E-score” value of the first is lower: -0.335 for the first, -0.0246 for the second.

Compared with ATCGCGAG, GAAGTTAC is higher in “PBM E-score” value: 0.0213 for the first, 0.183 for the second.

Compared with GATTGTAC, CCAATACA is higher in “PBM E-score” value: -0.0207 for the first, 0.00935 for the second.

Going from ACTTATAA to TCTGAGAA, the “PBM E-score” value falls from 0.119 to 0.0304.

Compared with ATAAGTCA, CAAGCCCG is lower in “PBM E-score” value: 0.0943 for the first, -0.165 for the second.

Going from GTTTCTCA to TAGAGGCA, the “PBM E-score” value falls from -0.0106 to -0.0879.

First: AAGCTGGA
Second: CACCATCA
The “PBM E-score” value of the first is lower: -0.208 for the first, 0.147 for the second.

First: AACTGGTG
Second: CAATCGAA
The “PBM E-score” value of the first is lower: -0.164 for the first, 0.135 for the second.

First: CAAGCCCA
Second: GATATAGC
The “PBM E-score” value of the first is lower: -0.177 for the first, 0.0466 for the second.

Compared with AGATACGG, TAAAGGGA is lower in “PBM E-score” value: 0.133 for the first, -0.112 for the second.

Compared with AAGTCCGA, CCTTTTAA is higher in “PBM E-score” value: -0.268 for the first, 0.0673 for the second.

First: CTGCGATA
Second: AAGAGCCA
The “PBM E-score” value of the first is lower: -0.0624 for the first, 0.0603 for the second.

Compared with GACACATC, GACACTCC is lower in “PBM E-score” value: 0.0845 for the first, 0.0359 for the second.

First: CCAGGAGC
Second: ATCCAATG
The “PBM E-score” value of the first is lower: -0.248 for the first, 0.0921 for the second.

First: CTCATGGA
Second: GGGATGTA
The “PBM E-score” value of the first is higher: -0.00062 for the first, -0.0844 for the second.

First: AAGAGACC
Second: GTATTGAC
The “PBM E-score” value of the first is lower: -0.125 for the first, 0.148 for the second.

Compared with ACGACCGA, GGGGAAAC is higher in “PBM E-score” value: -0.136 for the first, -0.0822 for the second.

Compared with GAGTCGAC, AGAAAGTC is higher in “PBM E-score” value: -0.112 for the first, -0.0873 for the second.

Going from ATAAATCG to ACATAGTC, the “PBM E-score” value falls from 0.167 to -0.00669.

First: AGGCTTGG
Second: AACCCGCA
The “PBM E-score” value of the first is lower: -0.173 for the first, -0.099 for the second.

Compared with CCGGAAAC, GGTCAGAA is higher in “PBM E-score” value: -0.162 for the first, -0.137 for the second.

First: GGAATTAA
Second: CATACAAG
The “PBM E-score” value of the first is higher: 0.215 for the first, 0.0443 for the second.

Compared with CCATGAGC, CTCCGAAC is lower in “PBM E-score” value: -0.157 for the first, -0.166 for the second.

Going from ATGTGTTG to ACTCTCAG, the “PBM E-score” value falls from 0.222 to 0.14.

First: ACCCTGCT
Second: CGTCGACA
The “PBM E-score” value of the first is lower: -0.34 for the first, 0.232 for the second.

First: GACAAGCC
Second: GACTGGGA
The “PBM E-score” value of the first is higher: -0.0452 for the first, -0.111 for the second.

Compared with ATAGCGAG, GACAGGGC is higher in “PBM E-score” value: -0.0715 for the first, 0.016 for the second.

First: CTCCCAAC
Second: ACTCAGCA
The “PBM E-score” value of the first is lower: -0.175 for the first, -0.148 for the second.

First: CTCGTCGC
Second: AGGTCAAA
The “PBM E-score” value of the first is lower: -0.0701 for the first, 0.0867 for the second.

Compared with TCTCCAGA, AAGAGTGA is higher in “PBM E-score” value: -0.201 for the first, 0.162 for the second.

Compared with AGAACACT, GCGTCATA is higher in “PBM E-score” value: 0.0744 for the first, 0.463 for the second.

Going from CTACCAAA to ACCTGTGC, the “PBM E-score” value falls from -0.00544 to -0.0633.

Going from GGTTGCTA to CGAGTGAG, the “PBM E-score” value rises from -0.207 to -0.0113.

First: GTCTTCGA
Second: ACCAGAGG
The “PBM E-score” value of the first is higher: -0.117 for the first, -0.12 for the second.

Compared with ACAATAGG, AATAAAGA is higher in “PBM E-score” value: -0.0365 for the first, 0.234 for the second.

First: AATGCATA
Second: AGCGGTAA
The “PBM E-score” value of the first is higher: 0.0177 for the first, -0.0855 for the second.

Going from ATAGGCAC to AGTTAGCA, the “PBM E-score” value rises from 0.0161 to 0.0735.

Going from ACTATACG to AGCCCGAT, the “PBM E-score” value falls from 0.0511 to -0.149.

Compared with TGTCCCAA, ATCGTGGG is higher in “PBM E-score” value: -0.0255 for the first, 0.00964 for the second.

First: ATAGTCTG
Second: CGTATCTC
The “PBM E-score” value of the first is lower: -0.0571 for the first, 0.0841 for the second.

First: AGAGGCCA
Second: GACTCCTC
The “PBM E-score” value of the first is lower: -0.23 for the first, -0.2 for the second.

Compared with AGTGCGAG, TCGTCTAA is higher in “PBM E-score” value: -0.21 for the first, -0.0165 for the second.

Compared with CCGGGATC, ACGTATGG is higher in “PBM E-score” value: -0.241 for the first, 0.158 for the second.

Going from ACTTCAAG to ACTGTCTA, the “PBM E-score” value falls from 0.0998 to 0.0786.

First: GCTTCGCA
Second: AACAGGGG
The “PBM E-score” value of the first is lower: -0.222 for the first, -0.144 for the second.

First: AGGGCAAG
Second: ATACGATG
The “PBM E-score” value of the first is lower: -0.0177 for the first, 0.17 for the second.

First: GAGCGAGC
Second: ATGAACAC
The “PBM E-score” value of the first is lower: -0.0566 for the first, 0.105 for the second.

First: GCAAAGAA
Second: AAAAATTT
The “PBM E-score” value of the first is lower: 0.00218 for the first, 0.15 for the second.

Going from ACGAAAAT to CACAGCCC, the “PBM E-score” value falls from 0.256 to -0.181.

Going from GTGAAGGA to CAAACCGA, the “PBM E-score” value rises from -0.0818 to 0.0213.

Going from ATATTCAT to CATACCGG, the “PBM E-score” value falls from 0.168 to -0.0839.

Going from CCATCTCG to CTGGTGTA, the “PBM E-score” value rises from -0.136 to -0.0853.

Going from ACGATTGG to AGCGGTTA, the “PBM E-score” value rises from -0.0162 to -0.0101.
